According to PubChem BioAssay AID1347165 (National Center for Advancing Translational Sciences (NCATS), 2019):
The campaign covered roughly 220,000 compounds. About 5,700 (2.6%) were called active. The shares of active, inactive and inconclusive entries below differ from those in the screen. Calls follow the shape of the dose curve; as a rule, active = well fitted inhibition curve with a large enough effect; inconclusive = small, poorly fitted or top-dose-only effect; inactive = no such curve, though single readings can be large or run the other way. Potencies beside an inconclusive call are fits to weak or partial responses and may not hold up.

target: Lysine-specific demethylase 5B (Homo sapiens) (UniProt Q9UGL1); test: Primary screen for KDM5B Histone Demethylases FDH-coupled qHTS; settings: FDH-coupled NADH fluorescence (FDH is formaldehyde dehydrogenase); activity change, negative = inhibition: at 57.7 µM (top of the series) unless noted; also: nearly all actives have a fitted effect of over 70% in size; as to activity change, negative = inhibition: 0% is about no effect
Procedure, shortened: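 Inhibition is measured as reduced NADH fluorescence generation from FDH coupling to formaldehyde release. Truncated KDM5BΔAP at 200 nM final acts on H3K4me3 peptide (12.5 µM in substrate mix) in pH 7.5 HEPES buffer with Tween-20, 30 min, room temperature.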
Potency is read from the fitted curve at half-maximal effect; tags tell the direction and shape of the fitted curve.

Chain of UniProt Q9UGL1 (Q9UGL1 whole entry, looked up, the tested form may be a part): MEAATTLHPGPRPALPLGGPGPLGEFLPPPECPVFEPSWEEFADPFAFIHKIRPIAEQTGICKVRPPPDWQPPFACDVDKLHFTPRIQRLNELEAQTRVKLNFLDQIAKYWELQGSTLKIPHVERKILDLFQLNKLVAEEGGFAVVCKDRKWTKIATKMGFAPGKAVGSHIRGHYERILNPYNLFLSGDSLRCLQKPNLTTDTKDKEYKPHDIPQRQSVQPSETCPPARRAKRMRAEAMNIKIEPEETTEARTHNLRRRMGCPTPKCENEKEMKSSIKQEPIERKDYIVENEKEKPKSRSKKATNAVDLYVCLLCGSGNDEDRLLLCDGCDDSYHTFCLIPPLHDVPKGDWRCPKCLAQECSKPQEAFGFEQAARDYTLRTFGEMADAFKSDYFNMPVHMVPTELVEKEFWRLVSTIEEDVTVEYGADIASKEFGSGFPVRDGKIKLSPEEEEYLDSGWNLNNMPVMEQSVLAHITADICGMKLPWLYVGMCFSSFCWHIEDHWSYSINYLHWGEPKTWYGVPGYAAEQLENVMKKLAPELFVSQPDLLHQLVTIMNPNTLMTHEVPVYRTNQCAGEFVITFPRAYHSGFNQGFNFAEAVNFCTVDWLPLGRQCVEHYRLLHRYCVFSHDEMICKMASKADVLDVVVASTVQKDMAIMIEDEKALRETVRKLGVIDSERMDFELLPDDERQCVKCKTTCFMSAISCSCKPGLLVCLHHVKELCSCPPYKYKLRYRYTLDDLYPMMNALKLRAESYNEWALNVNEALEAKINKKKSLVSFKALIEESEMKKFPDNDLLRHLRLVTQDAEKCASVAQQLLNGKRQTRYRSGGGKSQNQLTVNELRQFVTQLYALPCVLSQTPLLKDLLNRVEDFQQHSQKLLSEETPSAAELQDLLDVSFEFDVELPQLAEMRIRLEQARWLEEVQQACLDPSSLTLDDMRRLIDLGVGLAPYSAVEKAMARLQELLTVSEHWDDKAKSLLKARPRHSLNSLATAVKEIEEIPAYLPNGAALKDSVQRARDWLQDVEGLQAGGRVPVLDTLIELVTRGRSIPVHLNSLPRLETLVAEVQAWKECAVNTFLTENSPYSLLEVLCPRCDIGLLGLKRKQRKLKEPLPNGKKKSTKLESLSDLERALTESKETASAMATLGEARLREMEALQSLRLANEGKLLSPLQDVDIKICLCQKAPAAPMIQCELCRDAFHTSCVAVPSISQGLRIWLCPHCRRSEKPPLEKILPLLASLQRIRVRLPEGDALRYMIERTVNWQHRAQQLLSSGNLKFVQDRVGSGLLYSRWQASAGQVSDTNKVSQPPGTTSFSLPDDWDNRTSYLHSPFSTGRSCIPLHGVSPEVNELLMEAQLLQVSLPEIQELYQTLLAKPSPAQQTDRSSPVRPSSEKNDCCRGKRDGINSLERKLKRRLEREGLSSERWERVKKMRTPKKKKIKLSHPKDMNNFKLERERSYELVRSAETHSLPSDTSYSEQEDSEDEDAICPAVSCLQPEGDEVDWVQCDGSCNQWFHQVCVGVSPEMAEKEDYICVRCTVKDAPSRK

Row | Compound | Potency | activity change, negative = inhibition
1 | CCn1cc2nc(SCC(=O)Nc3cc(OC)cc(OC)c3)n(Cc3ccc(Cl)cc3)c(=O)c2n1 | inconclusive: 4.47 µM [inhibitor, partial curve, poor fit] | 
2 | Cc1ccc2oc(-c3ccc(NC(=O)CCC(=O)O)cc3)nc2c1 | inconclusive: 31.6 µM [inhibitor, partial curve, poor fit] | 
3 | Cc1cc(C)c(Nc2ncnc3c2cnn3C)c(C)c1 |  | inconclusive: -41.3% [inhibitor]
4 | CCCNC(=O)COC(=O)c1c2c(nc3ccccc13)CCC2 | inconclusive: 25.1 µM [inhibitor, partial curve, poor fit] | 
5 | Cc1noc(-c2ccn3c(CNC(=O)c4ccoc4)nnc3c2)n1 | active: 25.1 µM | 
6 | CC1CCC2(CC1)NC(=O)N(CC(=O)c1ccc3c(c1)OCO3)C2=O (configuration not stated) | inconclusive: 31.6 µM [inhibitor, partial curve, poor fit] | 
7 | COc1cccc([S+](=O)([O-])N2CCc3nc(C4CC4)nc(-c4ccc(Cl)cc4)c3CC2)c1 |  | inactive: -26.4%
8 | O=C(O)c1ccccc1-c1cc2ccccc2oc1=O | inconclusive: 28.2 µM [inhibitor, single point] | 
9 | COc1ccc(-c2nc3cc(C)ccc3cc2CN2CCC(N(C)C)C2)cc1 (configuration not stated) | inconclusive: 25.1 µM [inhibitor, single point] | 
10 | CCOc1ccc(CN(C)CC(O)COc2ccc(C)cc2C)cc1OC (configuration not stated) |  | inactive: -21.4%
11 | O=C(NCCC1=CCCCC1)C1CC(=O)N(c2n[nH]c3ccccc23)C1 (configuration not stated) | active: 25.1 µM | 
12 | O=C(c1cc(-c2cccs2)nc2ccccc12)N1CCC1 | inconclusive: 11.2 µM [inhibitor, partial curve, poor fit] | 
13 | O=C(N[C@@H]1CN(Cc2ccccc2)C[C@H]1CO)c1ncccn1 |  | inactive: -3.33%
14 | O=C(Nc1ccc(Cl)c(S(=O)(=O)Nc2ccccc2Cl)c1)c1n[nH]c2ccccc12 | inconclusive: 39.8 µM [inhibitor, single point] | 
15 | COc1cccc(NC(=O)Cn2c(=O)n(CCC(=O)NCCc3ccc(Cl)cc3)c(=O)c3ccccc32)c1 | inconclusive: 8.91 µM [inhibitor, partial curve, poor fit] | 
16 | CCCCCNC(=O)Cc1csc2nc(C)c(-c3cc(C)n(-c4cc(Cl)ccc4C)n3)c(=O)n12 | inconclusive: 35.5 µM [inhibitor, partial curve, poor fit] | 
17 | CN1c2cc(C(=O)Nc3cccc(C(F)(F)F)c3)ccc2C(=O)N2CCCCCC21 (configuration not stated) | inconclusive: 35.5 µM [inhibitor, partial curve, poor fit] | 
18 | COc1ccc(Nc2cnc3ccc(-c4ccccc4)nn23)cc1OC | inconclusive: 35.5 µM [inhibitor, partial curve, poor fit] | 
19 | Cc1ccc(C(=O)NC2CCN(c3cc(-c4ccccc4)[nH]n3)CC2)cc1F |  | inactive: -5.69%
20 | CN(C)Cc1ccc(-c2cc(-c3ccc(=O)[nH]c3)c3cncn3c2)cc1 | inconclusive: 39.8 µM [inhibitor, partial curve, poor fit] | 
21 | CCOC(=O)c1c(NC(=O)COc2ccc(Cl)cc2C)sc2c1CCCCC2 | inconclusive: 15.8 µM [inhibitor, partial curve, poor fit] | 

Row | Compound | Potency | activity change, negative = inhibition
22 | CCOc1ccc2oc(C(=O)N3CCN(CC(=O)Nc4ccccc4C(F)(F)F)CC3)c(C)c2c1 | inconclusive: 39.8 µM [inhibitor, single point] | 
23 | COC(=O)c1sccc1NC(=O)CC1(C(=O)O)CCCCCC1 |  | inactive: 14.7%
24 | Cc1nc2cc(-c3ccccc3)nn2c(C)c1CCC(=O)Nc1ccc(F)cc1F |  | inconclusive: -55.9% [inhibitor]
25 | COC(=O)c1ccccc1NC(=O)Cn1ccn2nc(-c3ccc(F)cc3)c(CO)c2c1=O | inconclusive: 22.4 µM [inhibitor, single point] | 
26 | CCSc1oc(-c2ccccc2)nc1S(=O)(=O)c1ccc(F)cc1 |  | inactive: -12.2%
27 | CCC(NC(=O)c1cc(Cn2ccc3ccccc32)[nH]n1)c1ncccc1C (configuration not stated) | inconclusive: 11.2 µM [inhibitor, partial curve, poor fit] | 
28 | COc1ccc(C(=O)CSc2nnc3c(=O)n(-c4cc(C)cc(C)c4)ccn23)cc1OC |  | inactive: -0.126%
29 | COC(CNC(=O)c1ccc(CNS(=O)(=O)c2ccc(Br)cc2)cc1)OC |  | inactive: 39.5%
30 | O=C(NCCCN1CCCCCC1)c1ccc2c(c1)sc1nc(-c3ccccc3)cn12 | inconclusive: 14.1 µM [inhibitor, partial curve, poor fit] | 
31 | CN1Cc2nc(-c3cccc(C(F)(F)F)c3)ccc2OCC1=O |  | inactive: 0.587% [at 86.2 µM]
32 | Cc1cc(OC(C)C(=O)Nc2cccc(-c3nc4ccccc4o3)c2)cc(C)c1Cl (configuration not stated) | inconclusive: 31.6 µM [inhibitor, partial curve, poor fit] | 
33 | Cc1ccoc1C(=O)N1C[C@@H](CO)[C@H](c2ccccn2)C1 |  | inactive: -5.98%
34 | COc1ccc(-c2nc(CSCC(=O)N3CCN(c4cc(Cl)ccc4C)CC3)c(C)o2)cc1 | inconclusive: 14.1 µM [inhibitor, partial curve, poor fit] | 
35 | CCN(CC)c1ccc(NC(=O)c2cnn(-c3ccccc3)c2-n2cccc2)c(C)c1 | inconclusive: 39.8 µM [inhibitor, single point] | 
36 | Cc1ccc(Cn2c(C)c3cnn(CC(=O)NCc4ccccc4)c(=O)c3c2C)cc1 | inconclusive: 25.1 µM [inhibitor, partial curve, poor fit] | 
37 | FC(F)Oc1ccccc1C=C(c1nc2ccccc2s1)c1nc2ccccc2s1 |  | inactive: 2.97%
38 | O=C(O)[C@H]1C[C@@H](C(=O)NCc2ccccn2)CN(CC2CC2)C1 |  | inactive: 12.7%
39 | Cc1ccc(C(=O)NNC(=O)C2CCCCC2)cc1Cl |  | inactive: 25.7%
40 | CC(C)(C)CC(=O)N1CCC(N2C(=O)CCC2C(=O)NCc2ccccc2)CC1 (configuration not stated) |  | inactive: 12.3%
41 | COc1ccc(Cn2c(=O)n(Cc3ccco3)c(=O)c3oc4ccccc4c32)cc1 | inconclusive: 3.16 µM [inhibitor, full curve, poor fit] | 
42 | Cc1cccc2sc(N(CCN(C)C)C(=O)c3ccc4c(c3)OCCO4)nc12 |  | inconclusive: -37.1% [inhibitor]
